Measured values reported in paper PMC1334387.
Results are given in words; binding and its absence hold for the method and conditions named. For some of these results: Binding seen in cells or lysates may run through a third protein. Some entries that bind do so weakly or less than the wild type. For some of these results: Tags and fused reporters may be left off the sequences shown. Blank lines part the entries; values can stand above or below the binder they belong to.

Key:
[1] = target: T1, OR83b IC3 (412-459) (Drosophila) (UniProt Q9VNB5); test: two-hybrid; GAL4 DNA-binding domain and activation domain fusions (pGBK-T7, pGAD-T7) in yeast AH109; six cotransformant colonies restreaked on media selecting for HIS3 and ADE2 reporters; growth scored after 3 d at 30 °C
T1 sequence: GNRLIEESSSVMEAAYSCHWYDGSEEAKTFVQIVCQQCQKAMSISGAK

[2] = target: T2, OR83b IC1 (97-134) (Drosophila) (UniProt Q9VNB5); test: as above
T2 sequence: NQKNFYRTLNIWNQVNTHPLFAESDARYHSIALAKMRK

[3] = target: T3, OR83b IC2 (226-351) (Drosophila) (UniProt Q9VNB5); test: as above
T3 sequence: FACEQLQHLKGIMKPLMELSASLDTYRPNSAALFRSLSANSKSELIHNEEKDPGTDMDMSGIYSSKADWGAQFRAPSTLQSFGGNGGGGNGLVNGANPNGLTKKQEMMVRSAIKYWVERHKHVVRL

[4] = target: T4, OR83b N-term (1-47) (Drosophila) (UniProt Q9VNB5); test: as above
T4 sequence: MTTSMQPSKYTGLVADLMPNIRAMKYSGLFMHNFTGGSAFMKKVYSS

[5] = target: T5, YFP(1):OR83b / YFP(2):OR83b (OR83b with an N-terminal YFP fragment for the PCA) (Drosophila), Q9VNB5; test: split reporter; YFP PCA in vivo; complementary fusions co-expressed with Gr21a-Gal4 in Gr21a neurons, where no OR is expressed; intrinsic YFP fluorescence in antennal sections; conditions: remark: other sources report otherwise
T5 chain: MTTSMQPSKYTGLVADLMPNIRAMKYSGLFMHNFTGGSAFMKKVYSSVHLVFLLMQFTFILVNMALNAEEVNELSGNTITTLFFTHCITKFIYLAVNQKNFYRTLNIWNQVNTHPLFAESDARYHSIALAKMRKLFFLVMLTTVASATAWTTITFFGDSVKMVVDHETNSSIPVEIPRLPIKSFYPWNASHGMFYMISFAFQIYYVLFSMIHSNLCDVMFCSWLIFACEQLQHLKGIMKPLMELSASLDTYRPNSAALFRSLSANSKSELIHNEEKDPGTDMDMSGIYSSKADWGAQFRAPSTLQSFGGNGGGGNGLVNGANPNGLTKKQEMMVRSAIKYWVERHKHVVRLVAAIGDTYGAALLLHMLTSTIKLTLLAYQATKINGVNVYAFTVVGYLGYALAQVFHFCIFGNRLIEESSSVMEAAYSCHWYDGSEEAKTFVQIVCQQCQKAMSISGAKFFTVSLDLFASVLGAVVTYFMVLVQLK

[6] = target: T5, YFP(1):OR83b / YFP(2):OR83b (OR83b with …); test: split reporter; YFP protein-fragment complementation assay (PCA) in vivo; complementary YFP(1)/YFP(2) N-terminal fusions co-expressed with Or83b-Gal4 in Or83b neurons of Or83b null-mutant (Or83b1/Or83b2) flies; intrinsic YFP fluorescence in antennal sections; conditions: remark: other sources report otherwise
[7] = target: T6, YFP(1):OR83b / YFP(2):OR83b (OR83b with an N-terminal YFP fragment for the PCA) (Drosophila) (UniProt Q9VNB5); test: as above
T6 sequence: T5 chain

binding [1]: no binding
B1: GR21a IC3 (357-416) (domain or fragment, UniProt Q9VPT1 357-416)
chain: NEAHYASRKVGLDFQTKLLNINLTAVDAATQKEVEMLLVAINKNPPIMNLDGYANINREL

binding [2]: no binding
binding [3]: no binding
binding [1]: no binding
binding [4]: no binding
Binder: HRLGQIGGEEQSEEERFQRLASCIAYHTQVMRYVWQLNK (domain or fragment, UniProt P81917 208-246) [OR43a IC2 (208-246)]

binding [1]: binds
B2: OR22a IC3 (305-359) (domain or fragment, UniProt P81909 305-359)
chain: DVSMETFPFCYLCNMIIDDCQEMSNCLFQSDWTSADRRYKSTLVYFLHNLQQPIT

binding [2]: no binding
binding [3]: no binding
binding [1]: binds
binding [4]: no binding
Binder: NRANEICLENNRVAEAVYNVPWYEAGTRFRKTLLIFLMQTQHPME (domain or fragment, UniProt P81917 298-342) [OR43a IC3 (298-342)]

binding [5]: binds
binding [6]: binds
B3: YFP(1):OR83b / YFP(2):OR83b (OR83b with an N-terminal YFP fragment for the PCA), Q9VNB5 1-486 (receptor)
chain: T5 chain

binding [7]: binds
B4: YFP(1):OR43a / YFP(2):OR43a (OR43a with an N-terminal YFP fragment for the PCA) (receptor, UniProt P81917 1-376)
chain: MTIEDIGLVGINVRMWRHLAVLYPTPGSSWRKFAFVLPVTAMNLMQFVYLLRMWGDLPAFILNMFFFSAIFNALMRTWLVIIKRRQFEEFLGQLATLFHSILDSTDEWGRGILRRAEREARNLAILNLSASFLDIVGALVSPLFREERAHPFGLALPGVSMTSSPVYEVIYLAQLPTPLLLSMMYMPFVSLFAGLAIFGKAMLQILVHRLGQIGGEEQSEEERFQRLASCIAYHTQVMRYVWQLNKLVANIVAVEAIIFGSIICSLLFCLNIITSPTQVISIVMYILTMLYVLFTYYNRANEICLENNRVAEAVYNVPWYEAGTRFRKTLLIFLMQTQHPMEIRVGNVYPMTLAMFQSLLNASYSYFTMLRGVTGK
